What follows are compounds tested against β-catenin/Tcf4 interaction (Homo sapiens (Human), UniProt P35222). Details: read-out: Ki ± SD; β-catenin/Tcf FP competitive inhibition; mean ± SD, n = 3.

Ki [µM] | Compound
> 100 | COC(=O)[C@H](CCC(=O)O)NC(=O)[C@H](CC(=O)O)NC(=O)[C@H](Cc1ccc2ccccc2c1)NC(=O)c1cc2cc(C)ccc2[nH]1 [Compound 14, (S)-4-((S)-3-Carboxy-2-((S)-2-(5-methyl-1H-indole-2-carboxamido)-3-(naphthalen-2-yl)propanamido)propanamido)-5-methoxy-5-oxopentanoic acid]
> 100 | COC(=O)[C@H](CCC(=O)O)NC(=O)[C@H](CC(=O)O)NC(=O)[C@H](Cc1ccc2ccccc2c1)NC(=O)c1cc2cc(OC)ccc2[nH]1 [Compound 15, (S)-4-((S)-3-Carboxy-2-((S)-2-(5-methoxy-1H-indole-2-carboxamido)-3-(naphthalen-2-yl)propanamido)propanamido)-5-methoxy-5-oxopentanoic acid]
89 ± 8.6 | COC(=O)[C@H](CCC(=O)O)NC(=O)[C@H](CC(=O)O)NC(=O)[C@H](Cc1ccc2ccccc2c1)NC(=O)c1cc2ccc(Cl)cc2[nH]1 [Compound 11, (S)-4-((S)-3-Carboxy-2-((S)-2-(6-chloro-1H-indole-2-carboxamido)-3-(naphthalen-2-yl)propanamido)propanamido)-5-methoxy-5-oxopentanoic acid]

Reference: patent US20250289848A1, “PEPTIDOMIMETIC INHIBITORS OF B-CATENIN/TCF PROTEIN-PROTEIN INTERACTION” (H. LEE MOFFITT CANCER CENTER AND RESEARCH INSTITUTE, INC., priority 2018, published 2025)
